Among all 310,000 compounds or so, about 18,000 (5.8%) were called active. The shares of active, inactive and inconclusive entries below differ from those in the screen. Calls follow the shape of the dose curve; as a rule, active = well fitted inhibition curve with a large enough effect; inconclusive = small, poorly fitted or top-dose-only effect, or another doubt; inactive = no such curve, though single readings can be large or run the other way. Potencies of inconclusive entries are left out as doubtful fits.
Experiment: Primary qHTS for delayed death inhibitors of the malarial parasite plastid, 48 hour incubation
Details: P. falciparum luciferase growth in erythrocytes; series mostly up to 28.7 µM
Method in brief: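 Firefly luciferase activity from engineered P. falciparum reports growth; inhibitors lower the luminescent signal. Cultures contained 2% hematocrit erythrocytes at 0.1% final parasitemia.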
Potency is read from the fitted curve at half-maximal effect; tags tell the direction and shape of the fitted curve.

Row | SMILES | Potency
1 | OC1CCN(c2c3c(nc4cc(-c5ccc(F)cc5)nn24)CCC3)CC1 | inconclusive [inhibitor, partial curve, poor fit]
2 | COCCNC(=O)C1=NOC(Cn2cc(C#N)c(=O)n(C)c2=O)C1 (stereo not given) | inconclusive [inhibitor, single point]
3 | CCCN1CCC(=O)N([C@H](COc2ccccc2)Cc2ccccc2)CC1 | inconclusive [inhibitor, single point]
4 | OCC1(Cc2cccc(Cl)c2)CCCN(Cc2sc(N3CCCC3)nc2Cl)C1 (stereo not given) | inconclusive [inhibitor, single point]
5 | CC(=O)NCCC(=O)Nc1cc(S(=O)(=O)N2CCCCC2)ccc1N1CCCCC1 | active: 1.17 µM
6 | CC(C)(C)NS(=O)(=O)c1ccc(CCC(=O)N2CCCC2)cc1 | inconclusive [inhibitor, partial curve, poor fit]
7 | Cc1ccc(C(=O)NC2CCCCNC2=O)cc1 (stereo not given) | inactive
8 | CC(C)c1ccc(NC(=O)C(c2ccc3c(c2)OCO3)N2CCN(C(=O)c3ccco3)CC2)cc1 (stereo not given) | inconclusive [inhibitor, partial curve, poor fit]
9 | CCOC(=O)c1c(C)[nH]c(NC(=O)NNC(=O)c2ccc(OC)cc2)c1C | inactive
10 | Cc1ccc(S(=O)(=O)N(C)c2ccc(C(=O)NCC(c3ccco3)N(C)C)cc2)cc1 (stereo not given) | inconclusive [inhibitor, partial curve, poor fit]
11 | COc1cccc(-n2c(C)nc3c(cnn3-c3ccc(C)cc3)c2=O)c1 | inconclusive [inhibitor, single point]
12 | CC(C)C(=O)Nc1ccc(NC(=O)c2ccc([N+](=O)[O-])cc2Cl)cc1 | inactive
13 | CC(C)c1nnc(SCC(=O)NC2CCCC2)n1C | inconclusive [inhibitor, full curve, poor fit]
14 | O=C(N/N=C/C(Br)=C/c1ccccc1)c1cc(-c2ccco2)[nH]n1 | inactive
15 | Cc1cc[n+](Cc2ccccc2)cc1 | active: 3.7 µM
16 | NC(=O)c1ccccc1NC(=O)COC(=O)C1(c2ccccc2)CC1 | inconclusive [inhibitor, single point]
17 | Cn1c(Oc2ccc(F)cc2F)c(C=O)c2ccccc21 | inconclusive [inhibitor, single point]
18 | CCN1C(=NCCc2ccc(Br)cc2)N[C@@H](c2ccccc2)[C@H](C(=O)OC)[C@H]1C | inconclusive [inhibitor, single point]
19 | COc1ccc(N2C(=O)CSC23C(=O)N2CCCc4cccc3c42)cc1 (stereo not given) | inactive
20 | CCC(COC)NC(=O)CCc1nnc(Cc2c[nH]c3ccccc23)o1 (stereo not given) | inactive
21 | COc1cc2cc(CN(CCN3CCOCC3)C(=O)Nc3ccc(F)cc3)c(=O)[nH]c2cc1OC | inconclusive [inhibitor, single point]
22 | CC(C(=O)Nc1ccccc1Sc1ccccc1)N(c1ccccc1)S(C)(=O)=O (stereo not given) | inconclusive [inhibitor, partial curve]

Row | SMILES | Potency
23 | COc1ccc(CNC(=S)Nc2cccc(C)c2C)cc1 | inconclusive [inhibitor, single point]
24 | O=C(Cn1cnc2c(nnn2Cc2ccc(F)cc2)c1=O)NC1CCCC1 | inconclusive [inhibitor, partial curve]
25 | COc1cccc(N2CCN(C(=O)CN3C(=O)NC(C)(c4ccc5ccccc5c4)C3=O)CC2)c1 (stereo not given) | inconclusive [inhibitor, partial curve, poor fit]
26 | OCCN1CCN(CC#CCn2c3ccccc3c3ccccc32)CC1 | inconclusive [inhibitor, partial curve, poor fit]
27 | Brc1ccc2[nH]c3c(N4CCc5ccccc5C4)ncnc3c2c1 | active: 1.65 µM
28 | Cc1nc(/N=C(\N)NC(=O)N2c3ccccc3Sc3ccccc32)nc2ccccc12 | inconclusive [inhibitor, single point]
29 | CSCC[C@H](NC(=O)OC(C)(C)C)c1nnc(SCC=C(C)C)o1 | inconclusive [inhibitor, single point]
30 | O=C(COc1ccccc1)N1CCN(C2CC3CCC2C3)CC1 (stereo not given) | inconclusive [inhibitor, single point]
31 | CC1CCN(CC(O)COc2ccc(-c3ccccc3)cc2)CC1 (stereo not given) | inconclusive [inhibitor, partial curve, poor fit]
32 | O=C(c1cccc(C(=O)N2CCN(c3ccc(F)cc3)CC2)c1)N1CCN(c2ccc(F)cc2)CC1 | active: 13.1 µM
33 | CC(=O)CCS(=O)(=O)c1ccc(Oc2ccc(S(=O)(=O)CCC(C)=O)cc2)cc1 | inactive
34 | Cc1sc2nc(CN3CCCC3)nc(N3CCN(C(=O)c4ccco4)CC3)c2c1C | inconclusive [inhibitor, partial curve]
35 | CCCCCCOc1ccc(/C(C)=N/NC2=NCCN2)cc1 | inconclusive [inhibitor, full curve]
36 | O=C(/C=C/c1cccc(Cl)c1)c1nc2ccccc2[nH]1 | inconclusive [inhibitor, single point]
37 | COc1ccc(OC)c(NC(=O)CCn2c(=S)[nH]c3ccccc3c2=O)c1 | inactive
38 | CC[C@H](C)C(C(=O)N1CCN(C(=O)OC(C)(C)C)CC1)n1cc(C(Cc2ccc(O)cc2)NC(=O)OC(C)(C)C)nn1 (stereo not given in full) | inconclusive [inhibitor, full curve, poor fit]
39 | Cc1cc(NC(=O)COc2coc(CN3CCN(c4ccc(F)cc4)CC3)cc2=O)no1 | inconclusive [inhibitor, single point]
40 | CCCSc1nnc2[nH]c(=O)cc(N)n12 | inconclusive [inhibitor, partial curve]
41 | O=C(OCC(=O)N1CCOCC1)c1cc(S(=O)(=O)N2CCOCC2)c(Cl)cc1Cl | inconclusive [inhibitor, partial curve]
42 | Cc1ccc(C)n1-c1ccc(NC(=O)c2ccccc2)cc1 | inconclusive [inhibitor, single point]
43 | CCOC(=O)c1[nH]c2ccc(OC)cc2c1NC(=O)/C=C/c1ccc2c(c1)OCO2 | inactive
44 | CC(CCN1C(N(C)C)=NC[C@@H]1C)c1ccccc1 (stereo not given in full) | inconclusive [inhibitor, partial curve, poor fit]

Row | SMILES | Potency
45 | O=C(CCc1nnc2n(Cc3ccc(Cl)cc3)c(=O)c3ccccc3n12)NCCN1CCCC1 | inconclusive [inhibitor, partial curve, poor fit]
46 | CC1CCCN(C(=O)C(C)Sc2nc(-c3ccccc3)cc(C(F)(F)F)n2)C1 (stereo not given) | active: 2.62 µM
47 | CC(=O)OC1=C(C#N)Cn2ccc3cccc1c32 | inconclusive [inhibitor, single point]
48 | O=C1CCCN1c1ccc(S(=O)(=O)N2CCN(c3ccccn3)CC2)cc1 | inconclusive [inhibitor, full curve]
49 | COc1ccc2cc([C@H](C)C(=O)N(C)Cc3ccccc3N3CCCC3)ccc2c1 | inconclusive [inhibitor, partial curve, poor fit]
50 | COc1cccc(CN(Cc2ccco2)C(c2ccc(F)cc2)c2nnnn2C(C)(C)C)c1 (stereo not given) | active: 1.65 µM
51 | COc1c([N+](=O)[O-])c(=O)n(-c2ccccc2)c2ccccc12 | inactive
52 | COc1ccc(OCc2nn3c(Cn4cnc5ccccc54)nnc3s2)cc1 | inconclusive [inhibitor, single point]
53 | CCOC(=O)c1c(NC(=O)C2CCCCC2)sc2c1CCN(CC)C2 | inconclusive [inhibitor, single point]
54 | COc1ccc(N(CC(=O)NCc2ccc(C)cc2)S(=O)(=O)c2ccccc2[N+](=O)[O-])c(OC)c1 | inconclusive [inhibitor, partial curve]
55 | Cc1c(Br)c([N+](=O)[O-])nn1CC(=O)Nc1sc2c(c1C(=O)OC(C)C)CCCC2 | inconclusive [inhibitor, single point]
56 | CN(CC(=O)Nc1ccc(F)cc1)C(=O)Cc1ccsc1 | inconclusive [inhibitor, single point]
57 | CC(OC(=O)CNC(=O)c1ccc(Br)cc1)C(=O)NC1CCCCC1C (stereo not given) | inconclusive [inhibitor, single point]
58 | O=C(NCc1ccccc1C(F)(F)F)C12CN(Cc3ccccc3)CC1C(c1ccc([N+](=O)[O-])cc1)=NO2 (stereo not given) | active: 3.29 µM
59 | O=C(CSc1ncnc2c1cnn2Cc1ccccc1)Nc1ccc2c(c1)OCCO2 | inconclusive [inhibitor, single point]
60 | CC(C)(C)c1ccc(-n2ncc3c2CCCC3NC(=O)C2=NNC(=O)CC2)cc1 (stereo not given) | inactive
61 | Cc1nc2ccc(C(=O)N3CCN(c4ccccc4)CC3)cc2s1 | inconclusive [inhibitor, single point]
62 | COC(=O)C1=C(C)N(c2ccc(OC)cc2)C(C)=C(C(=O)OC)C1c1ccc(OC)cc1 | inconclusive [inhibitor, full curve]
63 | CCCOc1ccccc1OCC(=O)Nc1cccc(S(=O)(=O)NC2=NCCC2)c1 | inconclusive [inhibitor, single point]
64 | COc1ccccc1NS(=O)(=O)c1ccc(NC(=O)c2nc3nc(C)cc(C(F)F)n3n2)cc1 | inactive
65 | CCCCN(CCCC)CCNC(=O)c1cn(CC)c2ccc(S(=O)(=O)N3CCCC3)cc2c1=O | inactive
